We go through 48 molecules from PubChem BioAssay AID1963576 (National Center for Advancing Translational Sciences (NCATS), 2024).

The campaign covered roughly 46,000 compounds. About 60 (0.1%) were called active. Inconclusive results (about 3%) are left out. Calls come from the whole dose curve; as a rule, active = well fitted inhibition curve with a large enough effect; inconclusive = small, poorly fitted or top-dose-only effect; inactive = no such curve, though single readings can be large or run the other way. The list shows a part of the results.

The nature of this test: Primary qHTS assay for Inhibitors of ovarian cancer metastasis using an organotypic tumor microenvironment (TME) model.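 For activity change, negative = inhibition: plate controls were DMSO wells for no effect and tomatine positive control wells for full effect.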 Note: nearly all actives have a fitted effect of over 65% in size. As to conditions: SKOV3ip1-GFP adhesion/invasion on 3D omental model, fluorescence; series mostly up to 45.8 µM; activity change, negative = inhibition: at the top concentration. The method in brief:
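Primary human omental fibroblast/mesothelial 3D culture pre-formed 48 h. SKOV3ip1-GFP cells added with compounds (0.36-46 umol/L), incubated 2 h RT/16 h 37 C, fixed; GFP cells quantified at 488/509 nm.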
Turning to `Cc1ccc(NC(=O)CCCc2nnc3n(C)c(=O)c4sccc4n23)cc1C`, the “activity change, negative = inhibition” value was inactive: 26.6%.

In the case of `NS(=O)(=O)c1ccc(NC(=O)c2cc(-c3cccs3)nc3ccccc23)cc1`, the molecule was classed as inactive.

Turning to `Cc1ccc(NC(=O)c2nc(S(C)(=O)=O)ncc2N(Cc2cccc(F)c2)Cc2ccco2)cc1C`, the “activity change, negative = inhibition” value is inactive: -14.2%.

As for `CCc1nn(CC(=O)NCc2ccco2)c(=O)c2cc3cc(F)ccc3n12`, the “activity change, negative = inhibition” value was inactive: -5.37%.

Regarding `Cc1ccc(Cl)cc1-n1c(=O)c2sc3ccccc3c2n(CC(=O)NC2CCCC2)c1=O`, the “activity change, negative = inhibition” value is inactive: -6.77%.

Turning to `Cc1ccc(CCNC(=O)C2COc3ccccc3C2)cc1` (stereo not drawn), the “activity change, negative = inhibition” value was inactive: -4.04%.

For the molecule `COc1ccc(N2CCN(c3ncnc4c3nc3n4CCCCC3)CC2)cc1`, the outcome was inactive.

Take `Cc1ccc(S(=O)(=O)c2cn(C)c3cc(N4CCOCC4)c(F)cc3c2=O)c(C)c1`: the “activity change, negative = inhibition” value is inactive: 7.54%.

`Oc1c(C(c2ccc(F)cc2)N2CCCC2)sc2nc(-c3ccco3)nn12` (stereo not drawn): the “activity change, negative = inhibition” value was inactive: 5.49%.

As to `Cc1ccc(CCNC(=O)Cn2ncc3c([nH]c4ccccc43)c2=O)cc1`, the “activity change, negative = inhibition” value was inactive: -2.09%.

For the molecule `COc1ccccc1CNS(=O)(=O)c1c(C(=O)N2CCC(C)CC2)c(C)n(C)c1C`, the result was inactive.

Turning to `Cc1cc(C)n(-c2nc3cc(Cl)ccc3nc2N2CCN(c3cccc(C)c3C)CC2)n1`, the “activity change, negative = inhibition” value was inactive: 3.14%.

Take `Cc1ccc2c(c1)-c1onc(C(=O)N3CCN(c4cc(C)ccc4C)CC3)c1CO2`: the call was inactive.

Consider `O=C(C1CCCN(S(=O)(=O)c2cccc3nonc23)C1)N1CCN(c2ccccc2F)CC1` (stereo not drawn), for which the result was inactive.

Turning to `COc1ccc(NC(=O)N2CCC(CN3CCCC3)CC2)c(OC)c1`, the “activity change, negative = inhibition” value is inactive: -8.59%.

For `O=C(CCn1c(=O)c2cccn2c2ccc(F)cc21)NCCc1ccc(Cl)cc1`, the molecule was called inactive.

As to `Clc1ccc(-c2ccc(CNCCSc3nnnn3-c3ccccc3)o2)cc1`, the “activity change, negative = inhibition” value was inactive: -19%.

Turning to `COC(=O)c1ccccc1NC(=O)CSc1cc(-c2ccccc2)nc(C)n1`, the “activity change, negative = inhibition” value is inactive: -3.58%.

Regarding `CCCCCN1C(C(=O)c2ccccc2)=C(NC(=O)c2ccc(OC)c(OC)c2)c2ccccc2S1(=O)=O`, the “activity change, negative = inhibition” value is inactive: -2.04%.

Take `COc1ccc(C)cc1NC(=O)CSc1nc(=O)n(Cc2cccnc2)c2c1CCC2`: the “activity change, negative = inhibition” value is inactive: -2.66%.

With `Clc1cccc(-n2ncc3c(NCCC4=CCCCC4)ncnc32)c1`, the “activity change, negative = inhibition” value was inactive: -3.88%.

As for `COc1ccc(OC)c(C(=O)CN2C(=O)N(c3cc(C)cc(C)c3)S(=O)(=O)c3ccccc32)c1`, the “activity change, negative = inhibition” value is inactive: -17.7%.

For the molecule `CC(C)(C)OC(=O)N1CCC(c2c(C(=O)NCCN3CCOCC3)cnn2-c2cccc(F)c2)CC1`, the “activity change, negative = inhibition” value was inactive: 0.438%.

In the case of `CCN1CCN(c2oc(-c3ccc(COc4ccc(OC)cc4)o3)nc2C#N)CC1`, the “activity change, negative = inhibition” value was inactive: -25.4%.

In the case of `CC(=O)c1ccc(N2C(=O)N(Cc3ccc(F)cc3)c3ccccc3S2(=O)=O)cc1`, the molecule was called inactive.

For `CCN(CC)S(=O)(=O)c1nnc(NC(=O)COc2ccccc2)s1`, the result was inactive.

With `COc1ccc(C2(CNC(=O)C(=O)Nc3ccc(C)c(Cl)c3)CCCC2)cc1OC`, the “activity change, negative = inhibition” value is inactive: -0.475%.

As to `COc1ccc(OC)c(NC(=O)Nc2cccc(OCc3cc(=O)n4cc(C)ccc4n3)c2)c1`, the “activity change, negative = inhibition” value was inactive: 18.9%.

With `CC(NC(=O)c1cccc(Nc2nc3ccccc3n3nnnc23)c1)c1ccccc1` (stereo not drawn), the “activity change, negative = inhibition” value was inactive: -7.58%.

Consider `CS(=O)(=O)c1ccc(-c2cnc(N)c(C(=O)Nc3ccccc3)n2)cc1`, for which the “activity change, negative = inhibition” value was inactive: 13.1%.

Consider `O=C(CSc1nc2c(c(=O)[nH]1)CCC2)Nc1cccc(O)c1`, for which the “activity change, negative = inhibition” value was inactive: 7.04%.

In the case of `Cc1cc(O)c(C(c2ccc(F)cc2)N2CCN(c3ccccc3)CC2)c(=O)n1Cc1ccco1` (stereo not drawn), the outcome was inactive.

`COc1ccc(NC(=O)C2CCN(c3nc4ccccc4[nH]3)CC2)cc1OC`: the “activity change, negative = inhibition” value was inactive: 3.21%.

On to `NS(=O)(=O)c1cc(Cl)c(Cl)c(S(N)(=O)=O)c1`, for which the “activity change, negative = inhibition” value is inactive: 4.2%.

As for `Cc1ccc(NC(=O)CSc2nnc(C)s2)c(C)c1`, the “activity change, negative = inhibition” value was inactive: -0.314%.

With `CCCCN1C(=O)C(NC(=O)c2ccc(C(C)(C)C)cc2)(C(F)(F)F)C(C(=O)OC)=C1C` (stereo not drawn), the “activity change, negative = inhibition” value is inactive: 3.89%.

For `COc1ccc(-c2nc(SCC(=O)NCc3nc4ccccc4n3C)n3[nH]c(=O)cc3n2)cc1`, the “activity change, negative = inhibition” value is inactive: 8.89%.

Regarding `Cc1ccc(S(=O)(=O)NCCc2nnc3ccc(SCc4cccc(F)c4)nn23)cc1`, the “activity change, negative = inhibition” value is inactive: -4.96%.

As for `COc1ccc(-n2nnnc2C2CCN(S(=O)(=O)c3cc(Cl)ccc3OC)CC2)cc1`, the “activity change, negative = inhibition” value was inactive: -7.73%.

As for `COc1cc(NC(=O)c2c(C)nn(-c3ccc(F)cc3)c2-n2cccc2)cc(OC)c1`, the “activity change, negative = inhibition” value is inactive: -1.31%.

With `Cc1ccc(N2CCN(c3ncnc4onc(-c5ccc(F)cc5)c34)CC2)c(C)c1`, the “activity change, negative = inhibition” value is inactive: 8.23%.

Turning to `CCn1c(=O)c2sccc2n2c(CCCC(=O)Nc3ccc(C)cc3)nnc12`, the “activity change, negative = inhibition” value is inactive: -0.741%.

Take `CCOc1ccc(OCC)c(Nc2nc3ccccc3n3nnnc23)c1`: the “activity change, negative = inhibition” value was inactive: -1.55%.

Take `CCN(C(=O)c1cc2c(=O)oc3ccccc3c2s1)c1cccc(C(F)(F)F)c1`: the molecule was called inactive.

Turning to `Cc1ccc(Nc2c(-c3ccco3)nc3ccc(C)cn23)cc1`, the “activity change, negative = inhibition” value is inactive: -0.347%.

Take `COc1ccc(CC(=O)Nc2c(C(=O)N3CCN(c4ccccc4F)CC3)oc3ccccc23)cc1OC`: the call was inactive.

In the case of `COc1ccc(-c2nc3ccccc3o2)cc1NC(=O)c1ccc(-c2ccc(C)c(Cl)c2)o1`, the “activity change, negative = inhibition” value was inactive: 4.39%.

Regarding `COc1cccc(CNC(=O)c2ccc3oc(=O)n(Cc4ccccc4)c3c2)c1`, the “activity change, negative = inhibition” value is inactive: -18.9%.
